Assay results from PubChem BioAssay AID1347165 (National Center for Advancing Translational Sciences (NCATS), 2019).
The campaign covered roughly 220,000 compounds. About 5,700 (2.6%) were called active. This list was built around the results that the source calls inconclusive (neither active nor inactive); the mix of calls is not that of the screen. The call rests on the fitted dose curve; in most records, active means well fitted inhibition curve with a large enough effect; inconclusive means small, poorly fitted or top-dose-only effect; inactive means no such curve, though single readings can be large or run the other way. Where the call is inconclusive, the potency comes from a doubtful curve fit.

biological target: Lysine-specific demethylase 5B (Homo sapiens) (UniProt Q9UGL1); experiment: Primary screen for KDM5B Histone Demethylases FDH-coupled qHTS; details: FDH-coupled NADH fluorescence (FDH is formaldehyde dehydrogenase); activity change, negative = inhibition: at 57.7 µM (top of the series) unless noted; further: nearly all actives have a fitted effect of over 70% in size; on activity change, negative = inhibition: 0% is about no effect
Sequence of UniProt Q9UGL1 (Q9UGL1 whole entry, looked up): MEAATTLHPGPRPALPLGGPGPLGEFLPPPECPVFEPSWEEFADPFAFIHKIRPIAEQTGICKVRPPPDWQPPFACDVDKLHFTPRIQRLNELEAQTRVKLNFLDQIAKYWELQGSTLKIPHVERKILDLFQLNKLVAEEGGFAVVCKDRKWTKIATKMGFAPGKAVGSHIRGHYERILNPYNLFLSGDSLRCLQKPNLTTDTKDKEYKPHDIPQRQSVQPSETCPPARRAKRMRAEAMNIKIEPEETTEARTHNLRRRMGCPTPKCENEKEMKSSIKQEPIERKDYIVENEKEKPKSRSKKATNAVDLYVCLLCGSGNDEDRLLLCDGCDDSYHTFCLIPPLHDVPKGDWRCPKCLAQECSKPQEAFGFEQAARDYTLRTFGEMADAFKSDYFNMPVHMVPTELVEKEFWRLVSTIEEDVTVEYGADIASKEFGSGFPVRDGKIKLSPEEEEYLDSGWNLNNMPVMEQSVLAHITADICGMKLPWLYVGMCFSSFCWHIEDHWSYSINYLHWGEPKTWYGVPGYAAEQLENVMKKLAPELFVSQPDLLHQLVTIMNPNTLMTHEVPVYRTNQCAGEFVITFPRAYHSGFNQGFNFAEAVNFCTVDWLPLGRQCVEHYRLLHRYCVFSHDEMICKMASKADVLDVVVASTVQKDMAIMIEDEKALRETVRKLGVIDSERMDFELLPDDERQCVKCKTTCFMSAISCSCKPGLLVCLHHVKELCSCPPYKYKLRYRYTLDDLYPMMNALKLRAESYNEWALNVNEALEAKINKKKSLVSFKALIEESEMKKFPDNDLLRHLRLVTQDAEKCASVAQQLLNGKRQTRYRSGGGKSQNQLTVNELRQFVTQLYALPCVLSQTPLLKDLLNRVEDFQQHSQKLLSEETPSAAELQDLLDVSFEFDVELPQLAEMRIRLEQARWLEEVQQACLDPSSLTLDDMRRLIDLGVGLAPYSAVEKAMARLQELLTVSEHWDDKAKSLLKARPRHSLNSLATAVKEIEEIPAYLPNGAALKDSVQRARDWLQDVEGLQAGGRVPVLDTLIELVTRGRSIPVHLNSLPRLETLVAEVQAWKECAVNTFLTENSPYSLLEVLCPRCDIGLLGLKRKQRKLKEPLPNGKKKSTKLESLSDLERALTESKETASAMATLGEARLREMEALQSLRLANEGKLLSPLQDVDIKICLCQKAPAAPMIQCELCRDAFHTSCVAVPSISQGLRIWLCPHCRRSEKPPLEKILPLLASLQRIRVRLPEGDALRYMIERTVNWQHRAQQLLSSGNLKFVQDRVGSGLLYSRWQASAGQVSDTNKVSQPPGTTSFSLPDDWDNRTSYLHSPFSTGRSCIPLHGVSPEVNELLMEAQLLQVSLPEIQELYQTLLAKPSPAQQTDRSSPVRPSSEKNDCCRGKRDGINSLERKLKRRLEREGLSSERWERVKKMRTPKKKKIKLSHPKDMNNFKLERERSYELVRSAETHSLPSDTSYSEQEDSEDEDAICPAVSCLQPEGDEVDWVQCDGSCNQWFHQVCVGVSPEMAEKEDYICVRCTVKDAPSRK
Procedure, shortened: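 qHTS format, multiple compound concentrations. Buffer 50 mM HEPES pH 7.5/0.01% Tween-20; 200 nM KDM5BΔAP final; 10 min compound preincubation; substrate-mix levels 12.5 µM peptide, 25 µM α-KG, 0.25 mM NAD⁺; 30 min RT; ΔRFU.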
Potency means the concentration at half of the fitted maximal effect; tags describe the fitted curve by direction and shape.

| Structure (SMILES) | Potency | activity change, negative = inhibition |
| --- | --- | --- |
| Fc1cc(F)cc(Cc2nc3nccc(-c4ccccc4)n3n2)c1 | active: 28.2 µM |  |
| CCOc1ccccc1CNC(=O)C1CCCN(c2nnc(C)c3c(C)n(-c4ccccc4)nc23)C1 (stereo not drawn) | inconclusive: 35.5 µM [inhibitor, partial curve, poor fit] |  |
| CC(C)(C)CC(=O)N1CC[C@H]2CC(=O)N(Cc3cccnc3)CC[C@H]2C1 | inactive |  |
| Cc1nc(N2CCN(C)CC2)ncc1C(=O)N1C[C@@H](C)[C@](O)(C2CC2)C1 | inconclusive: 22.4 µM [inhibitor, partial curve, poor fit] |  |
| CCN(CC)C(=O)c1ccc2c(c1)N(Cc1ccc(C(F)(F)F)cc1)C(=O)c1ccccc1S2 |  | inconclusive: -36.9% [inhibitor] |
| Cn1c(=O)c(C(=O)O)nn(-c2ccccc2)c1=O | inconclusive: 2.51 µM [inhibitor, partial curve, poor fit] |  |
| O=C(CSc1nc2c(c(=O)[nH]1)CCC2)Nc1oncc1-c1ccccc1 | inactive |  |
| CCc1cccc(C)c1NC(=O)CCn1c(=O)n(CC)c2ccccc21 | inactive |  |
| Cc1ccc(/C=N/n2c(-c3cccc(Cl)c3)n[nH]c2=S)o1 | inconclusive: 15.8 µM [inhibitor, partial curve, poor fit] |  |
| CSc1ccc(-c2ccc3c(c2)C(=O)N2CC[C@H](NC(=O)c4cccs4)[C@H]2C(=O)N3)cc1 | active: 25.1 µM |  |
| CCOc1ccccc1N1CCN(CC(=O)Nc2c(C)cc(C)cc2Cl)CC1 | inactive |  |
| Cc1c(C(=O)N2CCC(C)CC2)c(S(=O)(=O)N(Cc2ccccc2)C(C)(C)C)c(C)n1C | inactive |  |
| NC(=O)c1nsc(C(=O)N(Cc2ccco2)C(C(=O)NC2CCCC2)c2ccc(O)cc2)c1N (stereo not drawn) | inconclusive: 17.8 µM [inhibitor, single point] |  |
| CC(NC(=O)c1sc2ccccc2c1Cl)c1ccncc1 (stereo not drawn) | inactive |  |
| COc1ccc2[nH]c(=O)c(CN(C)C(=O)c3ccccc3F)cc2c1 | inconclusive: 31.6 µM [inhibitor, partial curve, poor fit] |  |
| COc1ccc(-c2cc(-c3cnn(C)c3)cn3cncc23)cc1 | active: 35.5 µM |  |
| COc1ccc(OC)c2sc(N3CCN(C(=O)c4ccco4)CC3)nc12 | inconclusive: 20 µM [inhibitor, single point] |  |
| CN1CCc2c([nH]c3ccccc23)C12CCN(C(=O)c1nccc3ccccc13)CC2 | inactive |  |
| O=C1NCCCc2[nH]c(-c3cc(-c4cccc(F)c4)no3)nc21 | inconclusive: 25.1 µM [inhibitor, single point] |  |
| CCOc1ccccc1NC(=O)c1cc(-c2ccco2)nc2ccccc12 | inconclusive: 28.2 µM [inhibitor, single point] |  |
| C=CCN(C)C(=O)C[C@@H]1c2nc(NC(=O)c3ccc(OC)cc3)sc2C[C@@H]2[C@](C)(CO)[C@H](O)CC[C@]21C | inconclusive: 17.8 µM [inhibitor, partial curve] |  |
| Cc1nc2c(c(-c3ccc(Cl)cc3)n1)CN(C(=O)c1ccc(C(F)(F)F)cc1)CC2 | inactive |  |

| Structure (SMILES) | Potency | activity change, negative = inhibition |
| --- | --- | --- |
| CCCCOc1ccc(NC(=O)Cc2ccc(OC)cc2)c2cccnc12 | inconclusive: 39.8 µM [inhibitor, single point] |  |
| COc1cc(F)ccc1-c1cc2c(ccn2C)c(C(=O)NCc2cccnc2)n1 | active: 39.8 µM |  |
| O=C(Nc1ccc2c(c1)OCCO2)c1cc2cc(Br)ccc2[nH]1 | inactive |  |
| CCOC(=O)c1[nH]c2ccc(C)cc2c1NC(=O)CC | inconclusive: 25.1 µM [inhibitor, partial curve, poor fit] |  |
| COc1cc(NC(=O)N2CCc3c(sc4c3CCCC4)C2c2ccccc2)cc(OC)c1OC (stereo not drawn) | inconclusive: 12.6 µM [inhibitor, partial curve, poor fit] |  |
| COCCCNc1nc2c(S(=O)(=O)c3ccc(C)c(C)c3)nnn2c2ccccc12 | active: 79.4 µM |  |
| O=C1NCCCCCCN(C(=O)C2CCCC2)[C@H]2C[C@H](C(=O)N3CCN(c4ccccn4)CC3)C[C@@H]12 | inconclusive: 17.8 µM [inhibitor, partial curve, poor fit] |  |
| Cc1ccc(/C=C(/C#N)C(=O)C(C)C)cc1C | inactive |  |
| CNC(=O)NC(=O)C(C)n1nc(C(=O)O)c2ccccc2c1=O (stereo not drawn) | inactive |  |
| CC(C)(C)C(=O)COC(=O)c1cc(S(N)(=O)=O)ccc1Br | inactive |  |
| CCN1CCC(CC(=O)N2CCC3(CC2)NCCc2c3[nH]c3ccccc23)CC1 | inconclusive: 22.4 µM [inhibitor, partial curve, poor fit] |  |
| COc1ccc(C(=O)NCCn2cc(SCc3c(F)cccc3Cl)c3ccccc32)cc1 | inconclusive: 15.8 µM [inhibitor, partial curve, poor fit] |  |
| COc1ccccc1OCC(=O)Nc1ccc(-c2nc3ccccc3o2)cc1 | inconclusive: 31.6 µM [inhibitor, partial curve, poor fit] |  |
| CC(C)c1ccc2sc3ccccc3c(=O)c2c1 | inconclusive: 20 µM [inhibitor, partial curve, poor fit] |  |
| CCCCCc1ccc(-c2ccc(-c3ccc(C#N)cc3)cc2)nc1 | inconclusive: 39.8 µM [inhibitor, partial curve, poor fit] |  |
| COc1ccccc1/C=C(\C)C(=O)c1c(C)cc(C)[nH]c1=O | inactive |  |
| N#Cc1ccccc1COC(=O)c1ccc(COc2ccccc2)o1 | inactive |  |
| Cn1cc2c(C(F)(F)F)cc(=O)n(CCC(=O)O)c2n1 | inconclusive: 31.6 µM [inhibitor, single point] |  |
| COc1ccc(-c2cc(C(F)(F)F)nc(SCCC(=O)Nc3ccc(OC)c(OC)c3)n2)cc1 | inconclusive: 25.1 µM [inhibitor, partial curve, poor fit] |  |
| CCN(CC)C(=O)c1c(NC(=O)c2cccc(C)c2)sc2c1CCC(C)C2 (stereo not drawn) | inconclusive: 39.8 µM [inhibitor, single point] |  |
| Cc1ccc(NC(=O)c2sc3nc(-c4cccs4)ccc3c2N)cc1F | inconclusive: 31.6 µM [inhibitor, partial curve, poor fit] |  |
